Laboratory results as given in the supplement of paper PMC11417369.
± gives the standard deviation of the averaged measurements. The list shows a part of the results.

System: PfAP2-I AP2 domain 3 (GST-tagged)
Assay: gcPBM binding intensity (ln(normalized median fluorescence intensity)); higher = stronger DNA binding
How it was run: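 An Agilent 4 × 180k array of primer-extended double-stranded 36-bp intergenic genomic probes, with negative controls, was incubated for 1 h with GST-tagged P. falciparum DNA-binding domains expressed in E. coli. Alexa488 anti-GST antibody detected bound protein, scanned at 488 nm. Binding intensity is the highest Masliner-normalised natural-log median intensity across replicate spots of either probe orientation.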

| Sequence | gcPBM binding intensity (ln) |
| --- | --- |
| TATGGAATAATACGCGTACACACATATATATATTAA [CACACA_site132] | 8.11 ± 0.32 |
| AATGGGGAAGGTTCTACACACAACGCAAATGCCTTA [CACACA_site2758] | 7.84 ± 0.71 |
| AAATTATTATGTATTTGTACACATAAGAATATAAAA [XGTACX_site6841] | 7.83 ± 0.46 |
| TATAAATAATGTTAAACACACATACCGATATATAAT [CACACA_site5499] | 7.68 ± 0.64 |
| TCAGTTAATGTATATGTACACACGGTGAGTATATAT [CACACA_site3346] | 7.82 ± 0.65 |
| AGAGAAAGAAAGAAATGTACAAATACCTACACACAT [XGTACX_site3140] | 7.89 ± 0.51 |
| TATTTTTTTCATAACAGTACAATAATATATATTTTT [XGTACX_site5739] | 7.75 ± 0.32 |
| GCACACACAAAAAAAGCATGCATACTAGCTATTTTT [TGCATGCA_site18] | 7.7 ± 0.72 |
| TTTTTTACAAATGATATCATTTCTTTAAATATTAAA [TGCATGCA_negctrl_site279] | 7.68 ± 0.61 |
| CTATAAATGAATGTTTGTACTTAATAATAAAAGAAA [XGTACX_site3170] | 7.83 ± 0.3 |
| AATGAAATAAATAAGGGTACACATAAATATATATAT [XGTACX_site7006] | 9.025 ± 0.078 |
| TATTCGTGCAATAATAGTACACTTATAAATTATTCA [XGTACX_site8993] | 11.2 ± 0.66 |
| AAAAAACACCCATACACACACACACCGATATATATA [CACACA_site5808] | 8.19 ± 0.7 |
| AATCAAAAAAAATGTTGTACGCCTAATTATAATTAA [XGTACX_site8906] | 8.06 ± 0.16 |
| ATTCTATATATATAAACACACAAATATTTTTATATA [CACACA_site1677] | 7.87 ± 0.43 |
| TTTTAGTGAAATGAGTGTACATTATATATTTTTTTT [XGTACX_site4892] | 7.64 ± 0.38 |
| ATATAAGGAAGGGATGCACACAAAAGGGTACATAAG [CACACA_site9328] | 8.29 ± 0.54 |
| AAGACTAATCTAGGTAGTACTTATATATCTTTATTT [XGTACX_site4572] | 7.54 ± 0.35 |
| TTTTTTATATATGTGTGTGTGTGTGTGTCAAGTTTA [GTGCAC_negctrl_site460] | 8.01 ± 0.2 |

| Sequence | gcPBM binding intensity (ln) |
| --- | --- |
| ATAACATAATAGCAACAATTTATTTCCTCTATAACA [CACACA_negctrl_site243] | 7.73 ± 0.58 |
| TTTGGGATATTTACAGTGCAAAGATATTTTTATAAT | 9.21 ± 0.11 |
| ATATTTTTGTTCAGGAGTACAGTTCAAGATGAAAAT [XGTACX_site4178] | 8.3 ± 0.27 |
| ATATAATATTACAAATGTACTTTAAAAAATTAGGAG [XGTACX_site3897] | 7.72 ± 0.45 |
| TTGTTTCAAGAAAAAATCGAAAAACATAGAAAAAAA [XGTACX_negctrl_site615] | 7.68 ± 0.69 |
| ACATATAAAATATATACACACATATAAATACATTAA [CACACA_site3867] | 7.66 ± 0.38 |
| TATATATCAAAAATATGTACACAGAAATATATATTA [XGTACX_site6997] | 8.04 ± 0.48 |
| TTGCAATAATGTTGCACACTAAATAGTCATATATAA [CACACA_site263] | 8.835 ± 0.078 |
| TCACATACATTACTTACACACCATATTAATATATAC [CACACA_site8047] | 8.19 ± 0.59 |
| AATAAAAAATAAAAAATAAACAGTATACATATATAT [GTGCAC_negctrl_site31] | 7.77 ± 0.75 |
| TCATATTAATTTGATAGTACATATACTTTGAAGTCC [XGTACX_site3767] | 7.74 ± 0.46 |
| TGTATATAAACAAGGGGTACAATAATATAAATAAAT [XGTACX_site8675] | 8.33 ± 0.21 |
| TTTTTTTTTTTTTTTACACACTATAGGGAAAAAAAA [CACACA_site1916] | 8.24 ± 0.61 |
| AAAAATATAATATATCTAAAATTTTTCATTAAATAT [XGTACX_negctrl_site274] | 7.4 ± 0.54 |
| ATAAATAAAAATACATGAACAGGTCAGGTTATTTTT [CACACA_negctrl_site1007] | 7.29 ± 0.61 |
| TTATATATAGAATAAACATGCATTTGTATATGAATA [TGCATGCA_site604] | 7.71 ± 0.53 |
| ACATATATATATTTATATATATATATATATATGTGA [CACACA_negctrl_site613] | 8.02 ± 0.35 |
| TGTTGTAACAAAAGTACACACACATTTCTATAAATT [CACACA_site8894] | 7.98 ± 0.042 |
| ATTACATAACAATATACACACTATTGATTAAAGAGA [CACACA_site5602] | 7.76 ± 0.47 |

| Sequence | gcPBM binding intensity (ln) |
| --- | --- |
| ATAATATAAATAAAGCGTACTTAATTTTATATATAT [XGTACX_site4626] | 7.86 ± 0.45 |
| TATTTAAAAGTATATACACACAACTGGAATGAAAAG [CACACA_site4126] | 8.18 ± 0.64 |
| CATTATGTCATAAATGCACACATATATATATACATA [CACACA_site8454] | 9.69 ± 0.19 |
| AAAATTAAAAAAATAAATACATTATATAATTAAAAA [CACACA_negctrl_site1426] | 7.51 ± 0.53 |
| TATGTATGCCCTAATGCATGTGAACAAAATAATATA [TGCATGCA_site407] | 8.06 ± 0.46 |
| TATTTTAATCGTAAGTGTACTCTTTTAAGTATATGT [XGTACX_site8591] | 7.85 ± 0.21 |
| ATTATAACACCTCCCCCCCTTTTTTTATGAAGACCA [CACACA_negctrl_site1043] | 10.3 ± 0.2 |
| AACAGACATAGACACACACACATATATTTATTTATA [CACACA_site7571] | 8.02 ± 0.57 |
| ATGCAAATAATATAAAGTACACAACATCGCCCAAAG [XGTACX_site1825] | 8.45 ± 0.55 |
| TTTTTTAAATTTTGAATTATAACTACATTAAAGAAA [GTGCAC_negctrl_site279] | 7.46 ± 0.45 |
| ACCATATAAATAAACACACACACACCCATATATATA [CACACA_site2321] | 8.27 ± 0.76 |
| TATATATCTATATTTACACACAGTTACTATGTAGAT [CACACA_site7532] | 7.44 ± 0.35 |
| ATAATATGTATAATCACACATTTTTCTTTTAAGACA [CACACA_site5297] | 7.61 ± 0.53 |
| GTTAAACTTAATATCGGTACACACACAAGATAAGAA [XGTACX_site1660] | 8.09 ± 0.49 |
| TAAAATATCATAGATAGTACATATAACGTTTTATAT [XGTACX_site5666] | 7.61 ± 0.48 |
| CATGACATAAAAAATATACACACTATAATATATATA [CACACA_site1402] | 8.27 ± 0.36 |
| AAATATATTATATTTAGTACGCATATATAATATGCA [XGTACX_site4835] | 7.63 ± 0.28 |
| ATGAAAATTTATATTGCACACATAGGGAATAAAAAA [CACACA_site8667] | 10.8 ± 0.71 |
